The list shows a part of the results. Values were computed here from the reads of four pooled replicates and scatter widely.
These sequences were tested against T1, Pho4 (S. cerevisiae) (UniProt P07270) (assay: relative binding free energy (BET-seq); higher = weaker binding). Conditions: reference: library average.
T1 sequence: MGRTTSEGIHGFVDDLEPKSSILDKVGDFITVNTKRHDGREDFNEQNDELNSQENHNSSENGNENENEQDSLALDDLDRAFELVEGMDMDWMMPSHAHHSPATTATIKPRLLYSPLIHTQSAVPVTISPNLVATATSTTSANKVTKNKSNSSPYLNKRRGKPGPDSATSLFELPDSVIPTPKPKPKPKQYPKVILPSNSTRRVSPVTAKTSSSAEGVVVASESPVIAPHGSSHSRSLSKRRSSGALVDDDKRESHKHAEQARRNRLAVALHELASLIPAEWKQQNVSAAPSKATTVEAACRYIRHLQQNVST

Sequence	relative binding free energy
GTTTTCACGTGATACT	0.39 kcal/mol
GTGAGCACGTGTGTGT	-0.07 kcal/mol
ATCGTCACGTGTTTGG	0.06 kcal/mol
TGTGGCACGTGTGTCA	-0.04 kcal/mol
CGTATCACGTGGGTCG	0.1 kcal/mol
TGGAGCACGTGTTAAG	0.1 kcal/mol
GGATTCACGTGTATGG	0.39 kcal/mol
TGCCGCACGTGGTTGG	-0.14 kcal/mol
TTGTACACGTGTAAAT	0.18 kcal/mol
GTACGCACGTGGGGGC	-0.29 kcal/mol
GATGACACGTGGGTGG	0.03 kcal/mol
ATTTCCACGTGTGTAT	0.21 kcal/mol
AATGTCACGTGTTTGT	0.13 kcal/mol
TGTGGCACGTGCGGGC	-0.18 kcal/mol
TTGTTCACGTGTTCAG	0.34 kcal/mol
TGGTTCACGTGCCGGG	0.16 kcal/mol
AGGCGCACGTGCGGTA	-0.15 kcal/mol
GAGGTCACGTGGCGCG	0.01 kcal/mol
TACGTCACGTGGGTTA	-0.25 kcal/mol
GCTGGCACGTGAGGTG	0.2 kcal/mol
GAGGCCACGTGTGTGA	0.01 kcal/mol

Sequence	relative binding free energy
TTTTACACGTGATGAA	0.18 kcal/mol
GGGATCACGTGGCGGT	0.22 kcal/mol
ACATACACGTGTGTGG	-0.06 kcal/mol
AATTTCACGTGCTGTT	0.08 kcal/mol
AGCGGCACGTGTGGGA	-0.02 kcal/mol
AGTCTCACGTGTGCGG	0.09 kcal/mol
GATGGCACGTGGGTAT	-0.08 kcal/mol
GGGTACACGTGGTAAT	0.01 kcal/mol
AAGATCACGTGTCGGG	0.17 kcal/mol
TCGAACACGTGTGGGG	-0.01 kcal/mol
AACGGCACGTGGTTGG	-0.06 kcal/mol
GGATTCACGTGGTAGG	0.28 kcal/mol
AAGCACACGTGGTTGG	0.17 kcal/mol
TCTGGCACGTGTGGCG	0.05 kcal/mol
GCCTACACGTGGGGGA	0.16 kcal/mol
TATTTCACGTGAAGCG	0.33 kcal/mol
ATATGCACGTGATGGT	0.1 kcal/mol
GGGATCACGTGTAGTT	0.05 kcal/mol
AGTCGCACGTGTTTTG	-0.15 kcal/mol
CTGTTCACGTGTTGTC	0.17 kcal/mol
TACTTCACGTGGCTGG	0.3 kcal/mol

Sequence	relative binding free energy
TGATGCACGTGGGTGC	-0.21 kcal/mol
GATGTCACGTGTTGTC	0.12 kcal/mol
GGCGTCACGTGTAAGT	0.16 kcal/mol
CTATTCACGTGCGGGG	0.08 kcal/mol
ACTATCACGTGTTTTT	0.24 kcal/mol
TGATTCACGTGGTGAA	0.11 kcal/mol
GGATCCACGTGGCGTG	0.02 kcal/mol
TTTCGCACGTGGTGCG	-0.17 kcal/mol
TTGAGCACGTGGAAAT	0.11 kcal/mol
GTGGGCACGTGCGGAC	-0.04 kcal/mol
TGGTCCACGTGAAGGA	0.26 kcal/mol
ATGTTCACGTGAGTTC	0.39 kcal/mol
GGTGTCACGTGAGTTA	0.37 kcal/mol
CGTGTCACGTGGTTTA	-0.03 kcal/mol
TTGTACACGTGTACAT	0.14 kcal/mol
GAGGGCACGTGGACAG	-0.15 kcal/mol
TGTCGCACGTGGTATG	-0.16 kcal/mol
TATCTCACGTGTGTCG	0.31 kcal/mol
AGTTTCACGTGTATAA	0.27 kcal/mol
TTTACCACGTGGGGTA	-0.22 kcal/mol
ATGTTCACGTGTGATG	0.33 kcal/mol

Source: the BET-seq Pho4 binding data (Le et al. 2018)
